Measured values published in US20210188948A1.

Biological target: DENV2 recombinant E protein (Native Antigen) (Dengue virus serotype 2)
Experiment: ELISA, plate-coated DENV2 rE

Substance | Binding DENV2 rE (OD450 fold change over negative controls)
WNV-specific mAb CR4354 (antibody) | 1 fold
mouse monoclonal antibody 3H5-1 | 5.3 fold
